The compounds below were run on MYC (assay: cells). Details: Homo sapiens, MV4-11, 4 h, read-out: Myc IC50 (μM).
Work on `CNC(=O)N1CCc2c(c(N3CCCc4cc(-c5cnn(C)c5)c(C)cc43)nn2C2CCOCC2)C1` [Example 255, N-methyl-3-[7-methyl-6-(1-methylpyrazol-4-yl)-3,4-dihydro-2H-quinolin-1-yl]-1-tetrahydropyran-4-yl-6,7-dihydro-4H-pyrazolo[4,3-c]pyridine-5-carboxamide] yielded an IC50 of 0.047 µM.
In the case of `CC(=O)N1CCc2c(c(Nc3cccc(-c4cnn(C)c4)c3F)nn2C2CCOC2)C1` (centres unmarked) [Example 50, 1-[3-[2-fluoro-3-(1-methylpyrazol-4-yl)anilino]-1-tetrahydrofuran-3-yl-6,7-dihydro-4H-pyrazolo[4,3-c]pyridin-5-yl]ethanone], the IC50 is reported as 0.65 µM.
For `CC(=O)N1CCc2c(c(Nc3cc(C(=O)NC(C)C)cc(-c4cnn(C)c4)c3)nn2C)C1` [Example 17, 3-[(5-acetyl-1-methyl-6,7-dihydro-4H-pyrazolo[4,3-c]pyridin-3-yl)amino]-N-isopropyl-5-(1-methylpyrazol-4-yl)benzamide], the IC50 was 0.29 µM.
With `CNC(=O)N1CCc2c(c(N3CCCc4cc(-c5ccc(Cl)s5)c(C(F)F)cc43)nn2C2CCOCC2)C1` [Example 365, 3-[6-(5-chloro-2-thienyl)-7-(difluoromethyl)-3,4-dihydro-2H-quinolin-1-yl]-N-methyl-1-tetrahydropyran-4-yl-6,7-dihydro-4H-pyrazolo[4,3-c]pyridine-5-carboxamide] the IC50 was 0.235 µM.
Work on `COc1cc2c(cc1-c1cnn(C)c1)CCCN2c1nn([C@H]2CCOC2)c2c1CN(C(C)=O)CC2` [Example 145, 1-[3-[7-methoxy-6-(1-methylpyrazol-4-yl)-3,4-dihydro-2H-quinolin-1-yl]-1-[(3S)-tetrahydrofuran-3-yl]-6,7-dihydro-4H-pyrazolo[4,3-c]pyridin-5-yl]ethanone] yielded an IC50 of 0.055 µM.
Compound `CC(=O)N1CCc2c(c(N3CCc4ccc(-c5cnn(C)c5)cc43)nn2C)C1` [Example 168, 1-[1-methyl-3-[6-(1-methylpyrazol-4-yl)indolin-1-yl]-6,7-dihydro-4H-pyrazolo[4,3-c]pyridin-5-yl]ethanone] has an IC50 of 0.478 µM.
For `CNC(=O)N1CCc2c(c(N3CCCc4cc(-c5cc(C)n(C)n5)c(C(F)F)cc43)nn2C2CCOCC2)C1` [Example 321, 3-[7-(difluoromethyl)-6-(1,5-dimethylpyrazol-3-yl)-3,4-dihydro-2H-quinolin-1-yl]-N-methyl-1-tetrahydropyran-4-yl-6,7-dihydro-4H-pyrazolo[4,3-c]pyridine-5-carboxamide], the IC50 was 0.011 µM.
Compound `CNC(=O)N1CCc2c(c(N3CCCc4cc(-c5cnn(C)c5)c(C(F)F)cc43)nn2[C@H](C)C2CC2)C1` [Example 381, (R)-1-(1-cyclopropylethyl)-3-(7-(difluoromethyl)-6-(1-methyl-1H-pyrazol-4-yl)-3,4-dihydroquinolin-1(2H)-yl)-N-methyl-1,4,6,7-tetrahydro-5H-pyrazolo[4,3-c]pyridine-5-carboxamide] has an IC50 of 0.006 µM.
For `CC(=O)N1CCc2c(c(N3CC(O)Cc4cc(-c5cnn(C)c5)ccc43)nn2[C@H]2CCOC2)C1` (stereo partly drawn) [Example 135, (S)-1-[3-[3-hydroxy-6-(1-methylpyrazol-4-yl)-3,4-dihydro-2H-quinolin-1-yl]-1-tetrahydrofuran-3-yl-6,7-dihydro-4H-pyrazolo[4,3-c]pyridin-5-yl]ethanone], the IC50 was 1.07 µM.
`CC(=O)N1CCc2c(c(Nc3ccc(-c4cnn(C)c4C)cc3F)nn2C2CCOC2)C1` (centres unmarked) [Example 283, 1-[3-[4-(1,5-dimethylpyrazol-4-yl]-2-fluoro-anilino]-1-tetrahydrofuran-3-yl-6,7-dihydro-4H-pyrazolo[4,3-c]pyridin-5-yl]ethanone] showed an IC50 of 0.078 µM.
`CC(=O)N1CCc2c(c(N3CCCc4cc(-c5cncc(Cl)c5)c(C(F)F)cc43)nn2C2CCOCC2)C1` [Example 314, 1-[3-[6-(5-chloro-3-pyridyl)-7-(difluoromethyl)-3,4-dihydro-2H-quinolin-1-yl]-1-tetrahydropyran-4-yl-6,7-dihydro-4H-pyrazolo[4,3-c]pyridin-5-yl]ethanone] showed an IC50 of 0.059 µM.
For `CC(=O)N1CCc2c(c(N3CCCc4cc(-c5cnn(C)c5C)c(C(F)F)cc43)nn2C2CCS(=O)(=O)CC2)C1` [Example 322, 1-[3-[7-(difluoromethyl)-6-(1,5-dimethylpyrazol-4-yl)-3,4-dihydro-2H-quinolin-1-yl]-1-(1,1-dioxothian-4-yl)-6,7-dihydro-4H-pyrazolo[4,3-c]pyridin-5-yl]ethanone], the IC50 was 0.019 µM.
Compound `CNc1ccc(-c2cc3c(cc2C(F)F)N(c2nn(C4CCOCC4)c4c2CN(C(C)=O)CC4)CCC3)cn1` [Example 311] has an IC50 of 0.019 µM.
`CNC(=O)c1ccc(-c2cc(F)c(Nc3nn(C4CCOCC4)c4c3CN(C(=O)NC)CC4)cc2C(F)F)cn1` [Example 272, (R)-3-[3,4-dimethyl-6-(1-methylpyrazol-4-yl)-7-(trifluoromethyl)-2,3-dihydroquinoxalin-1-yl]-N-methyl-1-tetrahydropyran-4-yl-6,7-dihydro-4H-pyrazolo[4,3-c]pyridine-5-carboxamide] gave an IC50 of 0.03 µM.
`CNC(=O)N1CCc2c(c(N3C[C@@H](C)Cc4cc(-c5cnn(C)c5)c(C(F)F)cc43)nn2C2CCOCC2)C1` [Example 251, (S)-3-[7-(difluoromethyl)-3-methyl-6-(1-methylpyrazol-4-yl)-3,4-dihydro-2H-quinolin-1-yl]-N-methyl-1-tetrahydropyran-4-yl-6,7-dihydro-4H-pyrazolo[4,3-c]pyridine-5-carboxamide] was tested, and the IC50 was 0.006 µM.
`CNC(=O)N1CCc2c(c(N3CCCc4cc(-c5cn(C)nc5C)c(C(F)F)cc43)nn2C2CCOCC2)C1` [Example 320, 3-[7-(difluoromethyl)-6-(1,3-dimethylpyrazol-4-yl)-3,4-dihydro-2H-quinolin-1-yl]-N-methyl-1-tetrahydropyran-4-yl-6,7-dihydro-4H-pyrazolo[4,3-c]pyridine-5-carboxamide] was tested, and the IC50 was 0.021 µM.
`CC(=O)N1CCc2c(c(N3CCCc4cc(-c5cnn(C)c5)c(OC(F)F)cc43)nn2C2CCOCC2)C1` [Example 146, 1-[3-[7-(difluoromethoxy)-6-(1-methylpyrazol-4-yl)-3,4-dihydro-2H-quinolin-1-yl]-1-tetrahydropyran-4-yl-6,7-dihydro-4H-pyrazolo[4,3-c]pyridin-5-yl]ethanone] showed an IC50 of 0.051 µM.
`CC(=O)N1CCc2c(c(N3CCc4cc(-c5cnn(C)c5)c(C(F)F)cc43)nn2C2COC2)C1` [Example 218, 1-[3-[6-(difluoromethyl)-5-(1-methylpyrazol-4-yl)indolin-1-yl]-1-(oxetan-3-yl)-6,7-dihydro-4H-pyrazolo[4,3-c]pyridin-5-yl]ethanone] was tested, and the IC50 was 0.551 µM.
Compound `CC(=O)N1CCc2c(c(N3CCCc4cc(-c5cnn(C)c5)c(OC(F)(F)F)cc43)nn2[C@H]2CCOC2)C1` [Example 149, 1-[3-[6-(1-methylpyrazol-4-yl)-7-(trifluoromethoxy)-3,4-dihydro-2H-quinolin-1-yl]-1-[(3S)-tetrahydrofuran-3-yl]-6,7-dihydro-4H-pyrazolo[4,3-c]pyridin-5-yl]ethanone] has an IC50 of 0.004 µM.
In the case of `CNC(=O)N1CCc2c(c(N3CCCc4cc(-c5cnn(C)c5)c(OC(F)(F)F)cc43)nn2C2CCOCC2)C1` [Example 256, N-methyl-3-[6-(1-methylpyrazol-4-yl)-7-(trifluoromethoxy)-3,4-dihydro-2H-quinolin-1-yl]-1-tetrahydropyran-4-yl-6,7-dihydro-4H-pyrazolo[4,3-c]pyridine-5-carboxamide], the IC50 is reported as 0.011 µM.
`CC(=O)N1CCc2c(c(N3CCc4cc(-c5cnn(C)c5)c(F)cc43)nn2C2CCOC2)C1` (centres unmarked) [Example 190, 1-[3-[6-fluoro-5-(1-methylpyrazol-4-yl)indolin-1-yl]-1-tetrahydrofuran-3-yl-6,7-dihydro-4H-pyrazolo[4,3-c]pyridin-5-yl]ethanone] gave an IC50 of 0.562 µM.
For `CNC(=O)N1CCc2c(c(N3CCCc4cc(-c5cnn(C)c5)c(C(F)F)cc43)nn2[C@@H](C)C2CC2)C1` [Example 382, (S)-1-(1-cyclopropylethyl)-3-(7-(difluoromethyl)-6-(1-methyl-1H-pyrazol-4-yl)-3,4-dihydroquinolin-1(2H)-yl)-N-methyl-1,4,6,7-tetrahydro-5H-pyrazolo[4,3-c]pyridine-5-carboxamide], the IC50 was 0.007 µM.
`CC(=O)N1CCc2c(c(Nc3cccc(C)c3)nn2Cc2cnco2)C1` [Example 189, (S)-4-[1-(5-acetyl-1-tetrahydrofuran-3-yl-6,7-dihydro-4H-pyrazolo[4,3-c]pyridin-3-yl)indolin-5-yl]-1-methyl-pyrazole-3-carbonitrile] showed an IC50 of 0.81 µM.
`CNC(=O)N1CCc2c(c(N3CCCc4cc(-c5cnn(C)c5)c(C(F)F)cc43)nn2C2CCN(C(=O)C3CC3)CC2)C1` [Example 377, 1-(1-(cyclopropanecarbonyl)piperidin-4-yl)-3-(7-(difluoromethyl)-6-(1-methyl-1H-pyrazol-4-yl)-3,4-dihydroquinolin-1(2H)-yl)-N-methyl-1,4,6,7-tetrahydro-5H-pyrazolo[4,3-c]pyridine-5-carboxamide] gave an IC50 of 0.006 µM.
`CC(=O)N1CCc2c(c(N3CCCc4cc(-c5cnn(C)c5)ccc43)nn2C2CCNC(=O)C2)C1` (centres unmarked) [Example 76, 4-(5-acetyl-3-(6-(1-methyl-1H-pyrazol-4-yl)-3,4-dihydroquinolin-1(2H)-yl)-4,5,6,7-tetrahydro-1H-pyrazolo[4,3-c]pyridin-1-yl)piperidin-2-one] gave an IC50 of 0.652 µM.
`CC(=O)N1CCc2c(c(N3CCCc4cc(-c5cnn(C)c5)c(C(F)F)cc43)nn2[C@@H]2CCCOCC2)C1` (single isomer, unassigned) [Example 374] was tested, and the IC50 was 0.01 µM.
In the case of `CNC(=O)N1CCc2c(c(N3CCN(C)c4cc(-c5cnn(C)c5)c(C(F)(F)F)cc43)nn2C2CCOCC2)C1` [Example 268, N-methyl-3-[4-methyl-6-(1-methylpyrazol-4-yl)-7-(trifluoromethyl)-2,3-dihydroquinoxalin-1-yl]-1-tetrahydropyran-4-yl-6,7-dihydro-4H-pyrazolo[4,3-c]pyridine-5-carboxamide], the IC50 is reported as 0.007 µM.
In the case of `CC(=O)N1CCc2c(c(N3CCc4c(F)cc(-c5cnn(C)c5)cc43)nn2C2CCOC2)C1` (centres unmarked) [Example 209, 1-[3-[4-fluoro-6-(1-methylpyrazol-4-yl)indolin-1-yl]-1-tetrahydrofuran-3-yl-6,7-dihydro-4H-pyrazolo[4,3-c]pyridin-5-yl]ethanone], the IC50 is reported as 3.36 µM.
Compound `CNC(=O)N1CCc2c(c(N3CC[C@H](C)c4cc(-c5cnn(C)c5)c(C(F)F)cc43)nn2C2CCOCC2)C1` (single isomer, unassigned) [Example 359] has an IC50 of 0.019 µM.
